Measurements as given in the supplement of paper PMC3334620.
Whole data set: some 33,000 sequences, median “E-score (-0.5 to 0.5)” near -0.036, cut for the highest 2% near 0.37. The list shows a part of the results.

Target: T1, Yer064c (UniProt P40041)
T1 sequence: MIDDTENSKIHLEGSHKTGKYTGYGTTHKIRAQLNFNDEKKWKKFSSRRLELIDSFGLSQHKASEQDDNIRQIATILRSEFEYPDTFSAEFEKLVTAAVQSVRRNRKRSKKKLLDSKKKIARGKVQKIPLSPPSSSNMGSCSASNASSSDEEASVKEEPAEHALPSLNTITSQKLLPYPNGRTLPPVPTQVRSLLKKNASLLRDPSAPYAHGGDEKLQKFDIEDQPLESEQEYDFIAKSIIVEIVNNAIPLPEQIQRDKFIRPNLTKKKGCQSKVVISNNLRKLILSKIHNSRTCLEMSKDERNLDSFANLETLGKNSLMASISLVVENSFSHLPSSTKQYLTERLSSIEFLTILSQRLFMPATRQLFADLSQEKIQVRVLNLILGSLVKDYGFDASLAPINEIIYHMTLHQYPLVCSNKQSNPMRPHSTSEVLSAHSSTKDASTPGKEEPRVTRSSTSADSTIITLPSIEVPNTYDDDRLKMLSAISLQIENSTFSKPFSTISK
Assay: PBM E-score (8-mer binding enrichment) (E-score (-0.5 to 0.5)); higher = stronger / more preferred TF binding; most listed sequences are background and not binding sites
Details: protein concentration: 200 nM; construct: GST-full length
In short: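 Universal all-10-mer Agilent arrays, double-stranded by primer extension on fresh or once-stripped slides, were probed with about 100-200 nM GST-tagged yeast transcription factors made by PURExpress. Fluorescent anti-GST detected bound protein, and masliner normalised the scans. E-scores from the Universal PBM Analysis Suite were given to each ungapped eight-base word pooled with its reverse complement.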

| Sequence | PBM E-score |
| --- | --- |
| CGCTCAAC | 0.0366 |
| AGCAGGAT | -0.127 |
| ACCCCCGC | -0.252 |
| ACATTCGA | 0.0721 |
| ATAATAAT | 0.0393 |
| GTTGGGAA | -0.144 |
| GAACAGAC | -0.0212 |
| AGCCGGGC | -0.283 |
| GGGATATA | -0.188 |
| GAGCAGGC | -0.327 |
| TAGGCCAA | -0.0706 |
| ATCATAAG | 0.335 |
| AGCCCCGA | -0.136 |
| ATTCGATC | 0.0729 |
| GTGGGTAA | 0.146 |
| GACAGGCA | -0.0768 |
| ACTGAAGT | 0.138 |
| CACGCGCC | 0.0221 |
| AAAGTATT | 0.00238 |
| CGGTGTAA | -0.0218 |
| GGTATAGA | -0.00589 |
| TTATGGAA | -0.132 |
| GTCAGAGA | 0.0876 |
| ATGCAAAC | -0.21 |
| ATTGACGA | 0.188 |

| Sequence | PBM E-score |
| --- | --- |
| ACTTTTAC | 0.0747 |
| CAGCCTGA | 0.223 |
| CCCATAAA | -0.101 |
| ACAGGAGT | 0.203 |
| AGCACGGC | -0.328 |
| ACTTAGAA | 0.175 |
| ATCCAATC | 0.0332 |
| GAGTCCCC | 0.32 |
| TACGCTGA | 0.158 |
| AGAAATAA | 0.101 |
| AATGGTGA | 0.176 |
| GCCATAGA | -0.237 |
| CGGGCTGA | -0.0144 |
| AGACTTAA | 0.195 |
| AATCTTAA | 0.244 |
| CGGCGAAA | -0.0549 |
| AAACAATG | 0.114 |
| AATAAATG | 0.0102 |
| CGCCTGTA | -0.26 |
| ATCCGGAG | 0.064 |
| CATGTCTA | 0.205 |
| AGAAGTCG | 0.207 |
| GTGGGCTA | -0.0478 |
| CCCACCGG | -0.0911 |
| GTGGATGA | 0.271 |

| Sequence | PBM E-score |
| --- | --- |
| ACATGCAT | 0.0041 |
| AAGCCGTC | -0.255 |
| GAACCTGC | -0.176 |
| AGATTTAC | -0.00289 |
| ACTGTCAT | 0.162 |
| AAGAACAA | -0.0609 |
| GGAGAGAA | -0.112 |
| AAACAGGC | -0.16 |
| ATGGTACC | -0.315 |
| TGCACACA | 0.00784 |
| CTTCGATC | -0.103 |
| CACAACGG | -0.124 |
| CATGGCCG | -0.31 |
| GATCCGTA | -0.117 |
| CCTTGAGC | -0.118 |
| ATGGAAGG | -0.152 |
| CAAGAATA | 0.00612 |
| ATCTACGC | -0.0396 |
| TAAAAGAA | 0.0221 |
| TGGTAGAA | -0.0551 |
| CCCTACCG | -0.0224 |
| CATACTGC | -0.0757 |
| CAGGCGGG | -0.325 |
| AGTGGCAC | -0.211 |
| CGGTAACC | -0.0716 |

| Sequence | PBM E-score |
| --- | --- |
| ACAGTCAT | 0.453 |
| AACAGTCA | 0.384 |
| ACCGCTCC | -0.173 |
| ATGAAGAG | -0.00039 |
| GTTCAAAC | 0.153 |
| CTTCGAAA | 0.0288 |
| AAGTGAGG | -0.0214 |
| CCATGCCC | -0.198 |
| CTCACGCA | 0.178 |
| CCTGGATC | -0.135 |
| CTGCGCAG | -0.283 |
| ATCTTCTC | 0.0141 |
| CGAACCTA | -0.114 |
| ACCCGCAA | -0.191 |
| ACTTGTTA | 0.0293 |
| ATTATAAC | -0.00089 |
| CTGGGCCA | -0.23 |
| GCGACTGA | 0.31 |
| GTGTTAGA | -0.03 |
| AGGAGTCG | 0.375 |
| ATGCCAAC | -0.162 |
| CAACGATA | -0.077 |
| AAATCTAG | 0.0437 |
| CAGCACAG | -0.049 |
| AGATCCGC | -0.0379 |

| Sequence | PBM E-score |
| --- | --- |
| ATTAGTGC | 0.0572 |
| TCAGGCGA | 0.043 |
| GCTGGCAA | -0.065 |
| GAACAATA | 0.0785 |
| CACAGCGG | -0.0138 |
| AATAGGGA | -0.212 |
| CAGAAGAG | -0.0116 |
| ATTCCGTG | 0.105 |
| ACTATCTA | 0.21 |
| AGGAAGAT | -0.0954 |
| GAGAAGAC | 0.0453 |
| AAATTTGT | 0.105 |
| CCGTCGCG | -0.0591 |
| GGTGTTTA | -0.0575 |
| GAGCAAGA | 0.121 |
| CAGCCTCG | 0.0424 |
| GTTCGGGA | 0.0106 |
| CCGAGAGG | -0.13 |
| AGAATGTG | 0.00651 |
| CCTGCCCG | -0.12 |
| GTGAGATA | -0.00683 |
| CTTTACCA | -0.0281 |
| CCGTGCCG | -0.101 |
| ATCCGAGC | -0.105 |
| CCACGAAG | 0.0637 |

| Sequence | PBM E-score |
| --- | --- |
| CACGCCAG | -0.106 |
| AGACTAAA | 0.398 |
| CGTACAAA | 0.188 |
| AGCGAAAG | -0.163 |
| ACCGCTAA | -0.0206 |
| CATTATCA | 0.129 |
| AGACAATA | -0.0356 |
| GCGAGAGC | -0.0885 |
| AATTTAAT | 0.213 |
| AATTTGCT | -0.0149 |
| CAAATGCA | -0.0683 |
| GCAAATGA | 0.0199 |
| CGAAAGAG | -0.00033 |
| TAGTATGA | 0.221 |
| CCGAGCCA | -0.077 |
| AAGTGATC | 0.103 |
| CTCGGTCA | -0.149 |
| TCAGGAAA | 0.128 |
| ATATTGGA | 0.032 |
| GATTACGC | 0.268 |
| TAGTGGGA | -0.154 |
| ACCCGGGG | -0.195 |
| AGAGCGAG | 0.0399 |
| CCTACGCC | -0.174 |
| ACACACCA | 0.0454 |

| Sequence | PBM E-score |
| --- | --- |
| GTAGACGA | 0.094 |
| ATCACGCC | 0.267 |
| GCATCATA | 0.0926 |
| ACATAGGT | 0.0651 |
| ATAGAAGA | -0.171 |
| GACCAACA | 0.0213 |
| GACGATAC | -0.214 |
| TCATAGAA | 0.194 |
| ACACTTGA | 0.263 |
| CCACATAC | -0.0976 |
| AGAGCCCC | -0.302 |
| GAAAGTAC | 0.0207 |
| ATGGCATC | -0.139 |
| GGAGCGAA | 0.0438 |
| TATTAAGA | 0.145 |
| GTATTTGA | 0.134 |
| ATCTATTC | 0.141 |
| AGATTTCA | -0.0383 |
| ACGGGATG | -0.159 |
| CGTCGCAC | -0.186 |
| CCTGTTCC | -0.162 |
| GGGCAGTA | -0.0703 |
